Tests used:
[1] = target: T1, human IL-2Rβ (CD122) (human, UniProt P14784 27-239); assay: BLI (OCTET RED96), receptor loaded on biosensor, global fitting
T1 construct: also called hIL-2Rβ
T1 sequence: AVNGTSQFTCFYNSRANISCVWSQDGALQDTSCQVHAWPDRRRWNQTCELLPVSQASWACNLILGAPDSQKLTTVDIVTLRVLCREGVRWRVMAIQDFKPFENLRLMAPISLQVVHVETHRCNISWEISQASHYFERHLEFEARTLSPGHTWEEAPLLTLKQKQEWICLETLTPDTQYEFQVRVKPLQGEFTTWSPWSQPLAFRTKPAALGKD
Experimental: (§1) OCTET® RED96 was used to characterize the interactions of anti-HSA-hIL-2 fusion proteins with human IL-2Rα (CD25) and IL-2Rβ (CD122). Briefly, hIL-2Rα and hIL-2Rβ were each loaded onto a biosensor. Each biosensor was then dipped into a solution containing an anti-HSA-hIL-2 fusion protein at 10 to 2,000 nM. Primary experimental data was analyzed with global fitting to determine a binding affinity (Kd).

[2] = target: T2, human IL-2Rα (CD25) (human, UniProt P01589 22-240, limits assumed); assay: as above
T2 construct: also called hIL-2Rα
T2 sequence: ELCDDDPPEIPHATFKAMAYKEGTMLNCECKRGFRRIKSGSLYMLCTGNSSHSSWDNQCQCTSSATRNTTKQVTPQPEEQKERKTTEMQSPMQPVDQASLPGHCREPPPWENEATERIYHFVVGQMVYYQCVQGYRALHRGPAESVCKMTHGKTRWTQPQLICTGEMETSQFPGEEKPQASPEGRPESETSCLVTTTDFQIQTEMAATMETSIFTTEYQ
Experimental: as §1

Kd [1]: 533 nM
Kd [2]: 6.5 nM
B1: anti-HSA-hIL-2 fusion protein C1 (hIL-2 mutein-anti-HSA (C125S) C1) (other)
chain: [omitted - about 150 residues]GGGGSGGGGSGGGGSGGGGSEVQLVESGGGLVQPGGSLRLSCAASGSTWSINTLAWYRQAPGKQRDLVARISSGGSTYYADSVKGRFTISRDNSKNTLYLQMNSLRAEDTAVYYCYAQSTWYPPSWGQGTLVTVSS
notes: Produced in CHO cells; also called hIL-2 mutein (C125S) fusion

Source: patent US20240417453A1 (ANWITA BIOSCIENCES, published 2024)
